In PubChem BioAssay AID488969 (Vanderbilt High Throughput Screening Facility, 2010) one finds z-score data, which are given here for 68 compounds.

Whole data set: some 110,000 compounds, median “z-score” near -0.1, cut for the highest 2% near 2. The list shows a part of the results. Active and inactive are the calls of the source.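 Rule for the calls: active = z-score in the third read window above 3 or below -3; inactive = the rest.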

This test has as its target Metabotropic glutamate receptor 8 (Rattus norvegicus) (UniProt P70579). Kind of test: rat mGluR8 modulators via GIRK flux, primary screen, cell-based, thallium flux, HTS (AID 488969). To be noted: HEK293 rat mGluR8, GIRK (G protein-gated inwardly rectifying potassium channel) thallium flux, FluoZin2; at 10 µM; stronger effect = higher value; submaximal glutamate (EC20) added with thallium.
UniProt P70579, sequence (P70579 whole entry, looked up): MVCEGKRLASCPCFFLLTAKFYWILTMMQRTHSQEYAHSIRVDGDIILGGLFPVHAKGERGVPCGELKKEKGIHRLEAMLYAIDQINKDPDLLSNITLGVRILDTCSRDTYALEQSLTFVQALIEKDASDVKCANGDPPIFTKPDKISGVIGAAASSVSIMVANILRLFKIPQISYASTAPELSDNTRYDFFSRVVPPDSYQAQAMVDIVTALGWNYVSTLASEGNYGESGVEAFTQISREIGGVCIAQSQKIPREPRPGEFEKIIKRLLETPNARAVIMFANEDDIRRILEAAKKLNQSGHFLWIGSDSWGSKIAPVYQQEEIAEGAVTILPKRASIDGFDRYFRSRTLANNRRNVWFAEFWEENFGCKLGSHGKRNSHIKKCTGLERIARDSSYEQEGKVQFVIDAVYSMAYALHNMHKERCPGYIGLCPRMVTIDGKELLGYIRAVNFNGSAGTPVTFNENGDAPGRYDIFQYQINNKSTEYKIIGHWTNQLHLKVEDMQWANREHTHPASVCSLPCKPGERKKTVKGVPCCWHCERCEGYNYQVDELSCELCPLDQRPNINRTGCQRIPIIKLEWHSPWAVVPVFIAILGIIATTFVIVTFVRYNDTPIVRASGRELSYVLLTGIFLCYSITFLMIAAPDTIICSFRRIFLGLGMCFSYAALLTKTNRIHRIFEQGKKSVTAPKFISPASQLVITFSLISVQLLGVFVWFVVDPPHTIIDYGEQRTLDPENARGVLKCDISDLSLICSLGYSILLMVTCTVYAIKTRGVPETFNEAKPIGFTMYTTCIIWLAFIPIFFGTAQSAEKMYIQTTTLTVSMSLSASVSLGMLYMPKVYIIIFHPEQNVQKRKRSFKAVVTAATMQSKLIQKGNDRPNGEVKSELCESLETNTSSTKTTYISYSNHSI
Turning to `COc1ccc(C(=O)Nc2cc(C)nc3ccccc23)cc1OC`, the z-score was found to be 0.0436.
Consider `O=CN1CCN(C(=O)Cc2ccc([N+](=O)[O-])cc2)CC1`, for which the z-score stood at 0.0722.
`CCN1CCN(Cc2cc(=O)oc3cc4c(cc23)CCC4)CC1`: the z-score stood at 1.86.
The figure for `Cc1cccc(Nc2nc(N)c([N+](=O)[O-])c(NCc3ccco3)n2)c1` is 2.38; for `Cc1ccc(OC(C)C(=O)Nc2ccc(S(=O)(=O)Nc3cc(C)on3)cc2)cc1` (stereo not drawn) it is -0.0628.
Regarding `O=C(c1ccc(S(=O)(=O)N2CCC(c3nc4ccccc4s3)CC2)cc1)N1CCCCC1`, the z-score was -0.509.
The value for `O=c1c2ccccc2c2c(O)nc(-c3ccccc3)n2n1Cc1ccccc1` was -0.192; that for `Cc1ccc(Nc2nnns2)cc1C` was 0.249.
The figure for `CC(Sc1ccc2ccccc2n1)C(=O)O` (stereo not drawn) is -0.043; for `CCCc1cc(N2CCN(c3ccccn3)CC2)n2nc(C)c(-c3ccccc3)c2n1` it is 0.0996.
On to `CCCC(=O)Nc1ccc(Cl)c(NC(=O)c2cccnc2Cl)c1`, for which the z-score turned out to be 0.0107.
The figure for `CC1(C)Cc2cccc(OCC(=O)Nc3cc(C(F)(F)F)ccc3N3CCOCC3)c2O1` is -0.14.
The figure for `C=CCN(C(=O)CNS(=O)(=O)c1ccccc1)C(C(=O)NCCOC)c1ccncc1` (stereo not drawn) is -0.601; for `C=CCn1c(O)c(C2=c3ccccc3=NC2=O)s/c1=N/c1nccs1` it is -0.29.
The figure for `Nc1nc(SCC(=O)c2ccc(Oc3ccccc3)cc2)n[nH]1` is 0.234; for `CN(Cc1ccccc1)C(=O)C1CCN(S(=O)(=O)c2cc([N+](=O)[O-])ccc2Cl)CC1` it is -0.357; for `O=C(c1ccc(-c2ccccc2)cc1)N1CCN(Cc2ccccn2)CC1` it is -0.515.
Compound `CN(C(=O)CSc1nnc(Nc2ccccc2)s1)c1c(N)n(Cc2ccccc2)c(=O)[nH]c1=O` came in with a z-score of 0.474.
As for `Cc1ccc(C)c(NC(=O)CCC(=O)NNC(=O)c2cccc([N+](=O)[O-])c2)c1`, the z-score came to 0.265.
`O=C(CN1CCN(S(=O)(=O)c2ccc(Br)cc2)CC1)N/N=C/c1cccs1`: the z-score was -0.589.
The value for `COc1ccc(C2C(C(=O)Nc3ccccc3OC)=C(C)Nc3ncnn32)cc1` (stereo not drawn) was -0.242.
The figure for `CCCCC(=O)Nc1ccc(NC(=O)c2ccccc2[N+](=O)[O-])cc1OC` is -1.55.
The figure for `CN(C)S(=O)(=O)c1ccc(Cl)c(NC(=O)COC(=O)CCSc2ccccc2)c1` is -0.163.
The compound `O=C(CN1C(=O)c2ccccc2C1=O)N1CCN(c2nnc(-c3ccccc3)c3ccccc23)CC1` gave a z-score of 0.179.
The figure for `COc1ccc(Oc2cc(F)nc(N)n2)cc1` is -0.157; for `Cn1nnc2cc(C(=O)NC3CCCCC3)ccc21` it is 0.38; for `Cc1ccc(Cn2nc(C)c(NC(=O)c3cc(-c4ccc5c(c4)OCO5)on3)c2C)cc1` it is -1.01.
The value for `O=C(CN(c1cccc(C(F)(F)F)c1)S(=O)(=O)c1ccc(Cl)c([N+](=O)[O-])c1)NCc1ccccc1` was 1.03.
The value for `Nc1c(C(=O)N2CCCCC2)sc(=S)n1-c1ccccc1` was -0.163.
As to `COc1ccc(C2/C(=C(\O)c3ccc4c(c3)OCCO4)C(=O)C(=O)N2Cc2ccco2)c(OC)c1` (stereo not drawn), the z-score was -1.9.
`O=C(Cn1ncc2c(=O)oc3ccccc3c21)N1CCN(C(=O)c2ccco2)CC1` gave a z-score of -0.199.
Consider `Cc1cccc2cc(C#N)c(SCC(=O)NCC3CCCO3)nc12` (stereo not drawn), for which the z-score amounted to 0.355.
The figure for `CCOC(=O)C1CCN(C(=O)Nc2ccc3nc(-c4ccco4)c(-c4ccco4)nc3c2)CC1` is -0.816; for `O=C(NC1CCCCC1)c1ccc(S(=O)(=O)N2CCCC2)cc1` it is -0.138; for `Cc1nc(SC2CC(=O)N(c3ccc([N+](=O)[O-])cc3)C2=O)nc2c1CCCC2` (stereo not drawn) it is -0.101.
For `Cc1ccc(O)c(/C=N/NC(=O)C2=NNC(c3ccccc3)(c3ccccc3)C2)c1`, the z-score is 0.157.
The compound `Cc1cc(C(=O)CSc2nnc(-c3ccco3)o2)c(C)n1-c1ccc2c(c1)OCCO2` displayed a z-score of 0.71.
The value for `Cc1ccccc1OCCn1c(=O)oc2ccccc21` was -0.479; that for `CCOC(=O)c1cnc2cc(C)nn2c1C` was 0.351; that for `COc1ccc(/C=N/Nc2nc(NCc3ccco3)nc(Nc3ccc(OC)cc3)n2)cc1` was -0.217.
The value for `COc1cccc(CNc2nc3nc(C)cc(=O)n3[nH]2)c1` was -0.0013; that for `C=CCNc1nc(Cl)nc(Nc2ccc(OCC)cc2)n1` was 0.127; that for `COc1ccccc1NC(=O)c1ccc(Cl)c(S(=O)(=O)N2CCOCC2)c1` was -0.465.
Take `Cc1cccc(CSc2nnc(N)n2-c2ccccc2)c1`: the z-score was -0.0797.
The value for `COc1ccc(NC(=O)c2c(NC(=O)CNCc3ccco3)sc3c2CCC3)cc1` was -0.387; that for `CCOC(=O)c1[nH]c(C)c(C(=O)OCC)c1C` was -0.0907; that for `CCOC(=O)c1ccccc1NC(=O)N[C@@H](C)C(=O)OC` was 0.0579.
The figure for `CCCCOC(=O)Nc1nnc(SCCOc2ccc(C)cc2)s1` is -0.177; for `Cn1c(=O)c2c(nc(-n3ccnc3)n2Cc2ccc(Cl)cc2Cl)n(C)c1=O` it is -0.162; for `CCSc1c(-c2ccccc2)nc2c(C)cccc2c1C(=O)O` it is -1.09.
`Cc1cc(OCc2ccc(C(=O)n3cccn3)o2)ccc1Cl` showed a z-score of -0.284.
The value for `C=CCOc1cccc(C2/C(=C(/O)c3ccc(C)cc3)C(=O)C(=O)N2CCN2CCOCC2)c1` (stereo not drawn) was active: 3.31.
The value for `CCCOc1ccc(Cl)cc1CN1CCOCC1` was -0.0364.
The figure for `COc1ccccc1NS(=O)(=O)c1cccc(NC(=O)Nc2ccccc2)c1` is -0.086; for `COC(=O)C1=CNC=C(C(=O)OC)C1c1cccc(OC)c1` it is -0.422; for `COc1cc(/C=N/N2C(=O)CSC2=S)ccc1O` it is 0.218.
`COc1ccccc1NC(=O)N(Cc1ccco1)Cc1cc2cc(C)cc(C)c2[nH]c1=O` yielded a z-score of -0.691.
The figure for `O=[N+]([O-])c1ccc(O)c(/C=N/n2cnnc2)c1` is 0.0326.
`O=C(Nc1c(C(=O)N2CCOCC2)cnn1-c1ccccc1Cl)c1ccco1` had a z-score of -0.159.
The figure for `CC(=O)Nc1cc(C(F)(F)F)ccc1OCC1CCCO1` (stereo not drawn) is 0.0261; for `CCOC(=O)c1c2c(n(C)c1COC)C(=O)C(=O)c1ccc(Br)cc1-2` it is -0.214.
In turn, `COc1cccc(N2C(=O)CC(NNC(=O)c3cccs3)C2=O)c1` (stereo not drawn) had a z-score of 0.0345.
The value for `Cn1nnnc1SCC(=O)N1CCN(c2ccc(Cl)cc2)CC1` was 0.736; that for `Cn1c(SCCOc2ccccc2Cl)nnc1-c1cccs1` was -0.314; that for `Cn1nnnc1SCC(=O)NC(=O)NCc1ccccc1` was 0.279.
Compound `O=C(NC(=S)N(Cc1ccccc1)Cc1ccccc1)C1CCCCC1` returned a z-score of 0.526.
The figure for `Cc1[nH]c(=O)c(C(=O)/C=C/c2ccccc2)c2c1CCCC2` is 0.984; for `O=S(=O)(Nc1ccc(-c2csc(-c3ccccc3)n2)cc1)c1ccc(F)cc1` it is 0.17.
